# Measured values: PMC9911399, “Two distinct binding modes provide the RNA-binding protein RbFox with extraordinary sequence specificity”
# Positions count from the first letter of the chain named. The list shows a part of the results.
# T1: RBFOX1 RRM (Homo sapiens, UniProt Q9NWB1 109-208)
# T1 sequence: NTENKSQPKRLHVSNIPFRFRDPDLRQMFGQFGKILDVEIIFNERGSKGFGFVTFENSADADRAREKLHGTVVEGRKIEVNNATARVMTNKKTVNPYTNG
# B1: GGAAAUG (DNA:RNA)
# RNA: GGGAGACCGGAAUUCAGAUUGUCCGGAAAUGUUAAAUCCCGUCGUAGCCACCA
# DNA 1: CAATCTGAATTCCGGTCTCCC
# DNA 2: TGGTGGCTACGACGGGATT
# B2: UUGCGCA (DNA:RNA)
# RNA: GGGAGACCGGAAUUCAGAUUGUCCUUGCGCAUUAAAUCCCGUCGUAGCCACCA
# DNA 1: CAATCTGAATTCCGGTCTCCC
# DNA 2: TGGTGGCTACGACGGGATT
# B3: CUUCUCG (DNA:RNA)
# RNA: B2 RNA with U25C, G27U, G29U, A31G
# DNA 1: CAATCTGAATTCCGGTCTCCC
# DNA 2: TGGTGGCTACGACGGGATT
# B4: AAUAGGA (DNA:RNA)
# RNA: B2 RNA with U25A, U26A, G27U, C28A, C30G
# DNA 1: CAATCTGAATTCCGGTCTCCC
# DNA 2: TGGTGGCTACGACGGGATT
# B5: GUGCACU (DNA:RNA)
# RNA: B2 RNA with U25G, G29A, A31U
# DNA 1: CAATCTGAATTCCGGTCTCCC
# DNA 2: TGGTGGCTACGACGGGATT
# B6: GGGGUCA (DNA:RNA)
# RNA: B2 RNA with U25G, U26G, C28G, G29U
# DNA 1: CAATCTGAATTCCGGTCTCCC
# DNA 2: TGGTGGCTACGACGGGATT
# B7: UCCUCCA (DNA:RNA)
# RNA: B2 RNA with U26C, G27C, C28U, G29C
# DNA 1: CAATCTGAATTCCGGTCTCCC
# DNA 2: TGGTGGCTACGACGGGATT
# B8: UGCUUUG (DNA:RNA)
# RNA: B1 RNA with G25U, A27C, A28U, A29U
# DNA 1: CAATCTGAATTCCGGTCTCCC
# DNA 2: TGGTGGCTACGACGGGATT
# B9: UUUGUGA (DNA:RNA)
# RNA: B2 RNA with G27U, C28G, G29U, C30G
# DNA 1: CAATCTGAATTCCGGTCTCCC
# DNA 2: TGGTGGCTACGACGGGATT
# B10: UACGUGU (DNA:RNA)
# RNA: B2 RNA with U26A, G27C, C28G, G29U, C30G, A31U
# DNA 1: CAATCTGAATTCCGGTCTCCC
# DNA 2: TGGTGGCTACGACGGGATT
# B11: CAACGGG (DNA:RNA)
# RNA: B1 RNA with G25C, G26A, A28C, A29G, U30G
# DNA 1: CAATCTGAATTCCGGTCTCCC
# DNA 2: TGGTGGCTACGACGGGATT
# B12: AUAACAU (DNA:RNA)
# RNA: B1 RNA with G25A, G26U, A29C, U30A, G31U
# DNA 1: CAATCTGAATTCCGGTCTCCC
# DNA 2: TGGTGGCTACGACGGGATT
# B13: CGUGGAU (DNA:RNA)
# RNA: B1 RNA with G25C, A27U, A28G, A29G, U30A, G31U
# DNA 1: CAATCTGAATTCCGGTCTCCC
# DNA 2: TGGTGGCTACGACGGGATT
# B14: CGCGAGA (DNA:RNA)
# RNA: B1 RNA with G25C, A27C, A28G, U30G, G31A
# DNA 1: CAATCTGAATTCCGGTCTCCC
# DNA 2: TGGTGGCTACGACGGGATT
# B15: UCUACCU (DNA:RNA)
# RNA: B2 RNA with U26C, G27U, C28A, G29C, A31U
# DNA 1: CAATCTGAATTCCGGTCTCCC
# DNA 2: TGGTGGCTACGACGGGATT
# B16: GUGCCGU (DNA:RNA)
# RNA: B2 RNA with U25G, G29C, C30G, A31U
# DNA 1: CAATCTGAATTCCGGTCTCCC
# DNA 2: TGGTGGCTACGACGGGATT
# B17: UGCCUAA (DNA:RNA)
# RNA: B2 RNA with U26G, G27C, G29U, C30A
# DNA 1: CAATCTGAATTCCGGTCTCCC
# DNA 2: TGGTGGCTACGACGGGATT
# B18: GGAAGAG (DNA:RNA)
# RNA: B1 RNA with A29G, U30A
# DNA 1: CAATCTGAATTCCGGTCTCCC
# DNA 2: TGGTGGCTACGACGGGATT
# B19: UCGUGCU (DNA:RNA)
# RNA: B2 RNA with U26C, C28U, A31U
# DNA 1: CAATCTGAATTCCGGTCTCCC
# DNA 2: TGGTGGCTACGACGGGATT
# B20: UAGAACU (DNA:RNA)
# RNA: B2 RNA with U26A, C28A, G29A, A31U
# DNA 1: CAATCTGAATTCCGGTCTCCC
# DNA 2: TGGTGGCTACGACGGGATT
# B21: AGCGCCU (DNA:RNA)
# RNA: B1 RNA with G25A, A27C, A28G, A29C, U30C, G31U
# DNA 1: CAATCTGAATTCCGGTCTCCC
# DNA 2: TGGTGGCTACGACGGGATT
# B22: UGCGCAC (DNA:RNA)
# RNA: B1 RNA with G25U, A27C, A28G, A29C, U30A, G31C
# DNA 1: CAATCTGAATTCCGGTCTCCC
# DNA 2: TGGTGGCTACGACGGGATT
# B23: GGAAACA (DNA:RNA)
# RNA: B1 RNA with U30C, G31A
# DNA 1: CAATCTGAATTCCGGTCTCCC
# DNA 2: TGGTGGCTACGACGGGATT
# B24: ACACACG (DNA:RNA)
# RNA: B1 RNA with G25A, G26C, A28C, U30C
# DNA 1: CAATCTGAATTCCGGTCTCCC
# DNA 2: TGGTGGCTACGACGGGATT
# B25: GCGCUUG (DNA:RNA)
# RNA: B1 RNA with G26C, A27G, A28C, A29U
# DNA 1: CAATCTGAATTCCGGTCTCCC
# DNA 2: TGGTGGCTACGACGGGATT
# B26: UAACCUU (DNA:RNA)
# RNA: B1 RNA with G25U, G26A, A28C, A29C, G31U
# DNA 1: CAATCTGAATTCCGGTCTCCC
# DNA 2: TGGTGGCTACGACGGGATT
# B27: GGCGCUU (DNA:RNA)
# RNA: B1 RNA with A27C, A28G, A29C, G31U
# DNA 1: CAATCTGAATTCCGGTCTCCC
# DNA 2: TGGTGGCTACGACGGGATT
# B28: CGCCGGC (DNA:RNA)
# RNA: B2 RNA with U25C, U26G, G27C, C30G, A31C
# DNA 1: CAATCTGAATTCCGGTCTCCC
# DNA 2: TGGTGGCTACGACGGGATT
# B29: UACCCGC (DNA:RNA)
# RNA: B2 RNA with U26A, G27C, G29C, C30G, A31C
# DNA 1: CAATCTGAATTCCGGTCTCCC
# DNA 2: TGGTGGCTACGACGGGATT
# B30: GGGUGAU (DNA:RNA)
# RNA: B1 RNA with A27G, A28U, A29G, U30A, G31U
# DNA 1: CAATCTGAATTCCGGTCTCCC
# DNA 2: TGGTGGCTACGACGGGATT
# B31: UUGCGCG (DNA:RNA)
# RNA: B2 RNA with A31G
# DNA 1: CAATCTGAATTCCGGTCTCCC
# DNA 2: TGGTGGCTACGACGGGATT
# Biological target: T1, RBFOX1 RRM
# Assay: EMSA; HiTS-Eq, 1 nM pool, 10 min; buffer printed only for the single-RNA assays: 10 mM Tris pH 7.5, 150 mM NaCl, 3.4 mM EDTA, 0.001% NP-40, 30 C
# Settings: tags: His6 N-terminal (pET28a); label: 5' 32P
# Outline: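 Purified RbFox RRM (wild type or mutant) was equilibrated for 10 min in 50 µL with 1 nM of a 5′-radiolabelled pool of RNA with 7 randomized nucleotides, its flanks annealed to DNA oligonucleotides, across increasing protein concentrations. Free RNA was separated by 8% native PAGE, excised, reverse-transcribed, PCR-barcoded and sequenced on an Illumina HiSeq 2500. Relative association constants came from read-count changes of each variant against the control reaction, normalised to the cognate motif.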
row,Binder,binding signal
1,B1,0.0124 KA relative to UGCAUGU
2,B2,0.0205 KA relative to UGCAUGU
3,B3,0.00824 KA relative to UGCAUGU
4,B4,0.000462 KA relative to UGCAUGU
5,B5,0.0223 KA relative to UGCAUGU
6,B6,0.0251 KA relative to UGCAUGU
7,B7,0.00244 KA relative to UGCAUGU
8,B8,0.0377 KA relative to UGCAUGU
9,B9,0.0163 KA relative to UGCAUGU
10,B10,0.0158 KA relative to UGCAUGU
11,B11,0.00606 KA relative to UGCAUGU
12,B12,0.00129 KA relative to UGCAUGU
13,B13,0.0146 KA relative to UGCAUGU
14,B14,0.0128 KA relative to UGCAUGU
15,B15,0.00333 KA relative to UGCAUGU
16,B16,0.0123 KA relative to UGCAUGU

row,Binder,binding signal
1,B17,0.00975 KA relative to UGCAUGU
2,B18,0.0232 KA relative to UGCAUGU
3,B19,0.0181 KA relative to UGCAUGU
4,B20,0.00828 KA relative to UGCAUGU
5,B21,0.00967 KA relative to UGCAUGU
6,B22,0.0185 KA relative to UGCAUGU
7,B23,0.0104 KA relative to UGCAUGU
8,B24,0.0018 KA relative to UGCAUGU
9,B25,0.0323 KA relative to UGCAUGU
10,B26,0.00248 KA relative to UGCAUGU
11,B27,0.0141 KA relative to UGCAUGU
12,B28,0.0134 KA relative to UGCAUGU
13,B29,0.00332 KA relative to UGCAUGU
14,B30,0.0158 KA relative to UGCAUGU
15,B31,0.0286 KA relative to UGCAUGU
